Data reported in US20050239864A1, “Novel tumor-selective chemotherapeutic agents” (priority 2004, published 2005).
Like-named read-outs stand apart in the source and are kept apart here.

Tests used:
colon 38 adenocarcinoma [1] = assay: Mice bearing colon 38 adenocarcinoma; assay type: in vivo
[2] = test system: MDA-MB 435 human breast cancer; settings: Dox-MH at optimal dose (3×23 mg/kg); cited from earlier work
colon 38 adenocarcinoma [3] = settings: cited from earlier work
various tumor models = settings: cited from earlier work
[4] = test system: SKOV-3 human ovarian cancer cells; assay: 3H-thymidine incorporation proliferation assay in vitro; assay type: cell-based; settings: for IC50: 72-h proliferation assay, 3H-thymidine uptake, mean of two experiments; for potency against SKOV-3 human ovarian cancer cells: in vitro
Method: (§1) The antitumor activity of the compounds was evaluated in vitro against L1210 leukemia and human SKOV-3 ovarian cancer cells (Table 4). L1210 leukemia cells and SKOV-3 (2.5×10^4 cells/well) in RPMI-1640 medium supplemented with 10% FCS medium were seeded in a 96-well plate. Drugs (10 uL) at increasing concentrations were added to each well, and the total volume was adjusted to 0.1 mL/well using the same medium. For L1210 leukemia cells, the plate was incubated for 24 h at 37° C. followed by addition of 10 uL of ^3H-thymidine (20 uCi/mL). For SKOV-3 ovarian cancer cells, the plate was incubated for 48 h at 37° C. followed by addition of 10 uL of ^3H-thymidine (20 uCi/mL). The plate was incubated for another 24 h. The cells were harvested, and radioactivity was counted using the Packard Matrix 96 beta counter. The results were expressed as the minimal concentration that inhibits ^3H-thymidine incorporation by 50% (IC50). Percent growth inhibition was calculated as follows: [(total cpm−experimental cpm)/total cpm]×100.

L1210 leukemia cells = assay: as above; assay type: cell-based; settings: for IC50: 48-h proliferation assay, 3H-thymidine uptake, mean of two experiments; for potency against L1210 leukemia cells: in vitro
Method: as §1

JC breast adenocarcinoma = assay: Mice bearing JC breast adenocarcinoma; assay type: in vivo
Method: JC is an epithelial-like cell line established in 1983 from a spontaneous primary adenocarcinoma along the milk line (Capone et al., Cancer Immuno. Immunother. 1987, 25, 93-9). It produces tumors with papillary adenocarcinoma morphology in BALB/c mice. […] At the lowest dose of 0.16 mg/kg, (+)-YW-391 (LCK: 1.5) killed 10-times more tumor cells than Dox at 8 mg/kg (LCK: 0.78). (+)-YW-391 has the potential to be a powerful new treatment for human breast cancer.

Lewis lung carcinoma = assay: Mice bearing Lewis lung carcinoma; assay type: in vivo; settings: 0.2 mg/kg i.v. days 1, 5, 12; listed as YW-391
[5] = Mice bearing colon 38 adenocarcinoma; assay type: in vivo; settings: BDF1, mouse, in vivo, intravenous; ×2 doses, mice bearing colon 38; read-out: maximal tolerated dose (MTD)
L1210 leukemia = L1210 leukemia tumor model, survival; assay type: in vivo, mice; settings: for % ILS: BDF1 mice, 10^5 cells i.p. day 0
[6] = test system: SKOV-3 human ovarian cancer; assay: SKOV-3 human ovarian cancer xenograft in nude mice; assay type: in vivo
Description: Ovarian cancer is one of the most difficult to treat human cancers, and very few drugs are effective. YW-391 had significant activity in SKOV-3 human ovarian cancer xenograft (FIG. 8 and Table 9).

[7] = free MTX in human, comparison value; cited from earlier work
liver cancer = settings: one patient, 40 microg/m^2 for one cycle (days 1-5); cited from earlier work
[8] = human, in vivo; cited from earlier work
[9] = 0.05 mg/kg days 2, 9, from Li et al. 1991
[10] = 0.005 mg/kg q4d × 3, from Carter et al. 1996
[11] = 0.2 mg/kg q4d × 3, from Li et al. 1991

N.N.[Cl][Pt][Cl] [Cisplatin]
% Cured mice (colon 38 adenocarcinoma [1]; 2 mg/kg q4d × 3 i.v.): 0% | % Maximum weight loss (colon 38 adenocarcinoma [1]; 2 mg/kg q4d × 3 i.v.): −8% | % Tumor growth inhibition (colon 38 adenocarcinoma [1]; 2 mg/kg q4d × 3 i.v.): 42% | Log10 cell kill (LCK) (colon 38 adenocarcinoma [1]; 2 mg/kg q4d × 3 i.v.): 0.30 | % Cured mice (colon 38 adenocarcinoma [1]; 4 mg/kg day1 i.v.): 0% | % Maximum weight loss (colon 38 adenocarcinoma [1]; 4 mg/kg day1 i.v.): −15% | % Tumor growth inhibition (colon 38 adenocarcinoma [1]; 4 mg/kg day1 i.v.): 66% | Log10 cell kill (LCK) (colon 38 adenocarcinoma [1]; 4 mg/kg day1 i.v.): 0.48

COc1cccc2c1C(=O)c1c(O)c3c(c(O)c1C2=O)C[C@@](O)(C(=O)CO)C[C@@H]3O[C@H]1C[C@H](N)[C@H](O)[C@H](C)O1 [Doxorubicin, doxorubicin]
antitumor response [2]: modest antitumor activity

Cc1c[nH]c2c1[C@@]13C[C@@H]1CN(C(=O)c1cc4cc(NC(=O)c5cc6ccccc6o5)ccc4[nH]1)C3=CC2=O [Adozelesin]
% Cured mice (colon 38 adenocarcinoma [3]; [9]): 0% | % Tumor growth inhibition (colon 38 adenocarcinoma [3]; [9]): 93% | Log10 cell kill (LCK) (colon 38 adenocarcinoma [3]; [9]): 0.65 | antitumor activity in vivo (various tumor models; L1210 leukemia, B16 melanoma, M5076 sarcoma, colon 38, colon CX-1, lung LX-1, pancreas O2, ovarian 2780 in mice): very active

Cc1c[nH]c2c(O)cc3c(c12)[C@H](CCl)CN3C(=O)c1cc2cc(NC(=O)Nc3ccc4[nH]c(C(=O)N5C[C@@H](CCl)c6c5cc(O)c5[nH]cc(C)c65)cc4c3)ccc2[nH]1 [Bizelesin]
% Cured mice (colon 38 adenocarcinoma [3]; [10]): 0% | Log10 cell kill (LCK) (colon 38 adenocarcinoma [3]; [10]): 0.70 | antitumor activity in vivo (various tumor models; P388, L1210, B16, UACC-62, LOX IMVI, SK-MEL-3, CAKI-1, LX-1, Lewis lung, HT-29, colon 38, pancreas 02, MCF7, MX-1): effective

O=C(CCCCCN1C(=O)C=CC1=O)Oc1cc2c(c3ccccc13)[C@H](CCl)CN2C(=O)c1cc2cc(NC(=O)c3cc4cc(F)ccc4[nH]3)ccc2[nH]1 [(+)-YW-391]
IC50 ([4]; Homo sapiens, SK-OV-3): 24 nM | potency against SKOV-3 human ovarian cancer cells [4]: very potent | IC50 (L1210 leukemia cells; Mus musculus, L1210): 25 nM | potency against L1210 leukemia cells (L1210 leukemia cells): very potent | times more tumor cells killed than Dox (JC breast adenocarcinoma; 0.16 mg/kg (LCK: 1.5) versus Dox 8 mg/kg (LCK: 0.78)): 10 | % Maximum weight loss (JC breast adenocarcinoma; 0.16 mg/kg q4d × 3 i.v.): −19% | % Tumor growth inhibition (JC breast adenocarcinoma; 0.16 mg/kg q4d × 3 i.v.): 93% | Log10 cell kill (LCK) (JC breast adenocarcinoma; 0.16 mg/kg q4d × 3 i.v.): 1.5 | % Maximum weight loss (JC breast adenocarcinoma; 0.20 mg/kg q4d × 3 i.v.): −23% | Log10 cell kill (LCK) (JC breast adenocarcinoma; 0.20 mg/kg q4d × 3 i.v.): 1.9 | % Tumor growth inhibition (Lewis lung carcinoma): 84% | times more tumor cells killed than 5-FU (colon 38 adenocarcinoma [1]; 0.15 mg/kg (LCK: 2.3) versus 5-FU 70 mg/kg (LCK: 1.1)): 10 | % Cured mice (colon 38 adenocarcinoma [1]; 0.15 mg/kg q4d × 3 i.v.): 29% | % Maximum weight loss (colon 38 adenocarcinoma [1]; 0.15 mg/kg q4d × 3 i.v.): −10% | % Tumor growth inhibition (colon 38 adenocarcinoma [1]; 0.15 mg/kg q4d × 3 i.v.): 99% | Log10 cell kill (LCK) (colon 38 adenocarcinoma [1]; 0.15 mg/kg q4d × 3 i.v.): 2.3 | % Tumor growth inhibition (colon 38 adenocarcinoma [1]; 0.3 mg/kg q4d × 2 i.v.): 99% | Log10 cell kill (LCK) (colon 38 adenocarcinoma [1]; 0.3 mg/kg q4d × 2 i.v.): 2.6 | % Cured mice (colon 38 adenocarcinoma [1]; 0.3 mg/kg q4d × 2 i.v., tumor-free on day 60): 50% | MTD [5]: 0.3 mg/kg | % ILS (L1210 leukemia; 0.2 mg/kg i.v. on day 1): 107% | % ILS (L1210 leukemia; 0.4 mg/kg i.v. on day 1): 133% | active dose range (8-fold) (L1210 leukemia; L1210 leukemia model, i.v.): 0.05 to 0.4 mg/kg | % Tumor growth inhibition ([6]; 0.13 mg/kg iv. days 15, 24, 33): 52%

O=C(Nc1ccc2[nH]c(C(=O)N3C[C@@H](CCl)c4c3cc(O)c3ccccc43)cc2c1)c1cc2cc(F)ccc2[nH]1 [(+)-YW-367]
IC50 [4]: 14 nM | IC50 (L1210 leukemia cells): 0.17 nM

CC(=O)O[C@H]1C(=O)[C@@]2(C)[C@H]([C@H](OC(=O)c3ccccc3)[C@]3(O)C[C@H](OC(=O)[C@H](O)[C@@H](NC(=O)c4ccccc4)c4ccccc4)C(C)=C1C3(C)C)[C@]1(OC(C)=O)CO[C@@H]1C[C@@H]2O [Paclitaxel]
% Tumor growth inhibition ([6]; 25 mg/kg ip. days 15, 24, 33): 22%

CN(Cc1cnc2nc(N)nc(N)c2n1)c1ccc(C(=O)N[C@@H](CCC(=O)O)C(=O)O)cc1 [MTX, methotrexate]
half-life [7]: approximately 7 h

O=C(CCCCCN1C(=O)C=CC1=O)Oc1cc2c(c3ccccc13)[C@H](CCl)CN2C(=O)c1cc2cc(NC(=O)c3cc4ccccc4o3)ccc2[nH]1 [(+)-YW-392]
potency against SKOV-3 human ovarian cancer cells [4]: very potent | potency against L1210 leukemia cells (L1210 leukemia cells): very potent | % Cured mice (colon 38 adenocarcinoma [1]; 0.15 mg/kg q4d × 3 i.v.): 0% | % Maximum weight loss (colon 38 adenocarcinoma [1]; 0.15 mg/kg q4d × 3 i.v.): −5% | % Tumor growth inhibition (colon 38 adenocarcinoma [1]; 0.15 mg/kg q4d × 3 i.v.): 84% | % Cured mice (colon 38 adenocarcinoma [1]; 0.3 mg/kg q4d × 3 i.v.): 0% | % Maximum weight loss (colon 38 adenocarcinoma [1]; 0.3 mg/kg q4d × 3 i.v.): −7% | % Tumor growth inhibition (colon 38 adenocarcinoma [1]; 0.3 mg/kg q4d × 3 i.v.): 90% | Log10 cell kill (LCK) (colon 38 adenocarcinoma [1]; 0.3 mg/kg q4d × 3 i.v.): 1.7

COC(=O)c1c(C)[nH]c2c(OC(=O)N3CCN(C)CC3)cc3c(c12)[C@H](CBr)CN3C(=O)c1cc2cc(OC)c(OC)c(OC)c2[nH]1 [KW-2189]
antitumor activity in vivo (various tumor models; P388, L1210, B16, colon 26, colon 38, LC-6 lung, ST-4, ST-40 stomach, LI-7 liver, PAN-02 pancreas, MX-1 breast): active

O=c1[nH]cc(F)c(=O)[nH]1 [5-FU, 5-Fluorouracil]
% Cured mice (colon 38 adenocarcinoma [1]; 70 mg/kg q4d × 3 i.v.): 0% | % Maximum weight loss (colon 38 adenocarcinoma [1]; 70 mg/kg q4d × 3 i.v.): −7% | % Tumor growth inhibition (colon 38 adenocarcinoma [1]; 70 mg/kg q4d × 3 i.v.): 95% | Log10 cell kill (LCK) (colon 38 adenocarcinoma [1]; 70 mg/kg q4d × 3 i.v.): 1.1 | weight loss at which the mice begin to die (colon 38 adenocarcinoma [1]; mice bearing colon 38): −7%

CCN(CC)c1ccc2cc(C(=O)Nc3ccc4[nH]c(C(=O)N5C[C@@H](CCl)c6c5cc(OC(=O)Nc5ccccc5)c5[nH]cc(C)c65)cc4c3)oc2c1 [Carzelesin]
duration of partial remission (liver cancer): 8 months | regression of primary liver cancer (liver cancer): 50% | % Cured mice (colon 38 adenocarcinoma [3]; [11]): 0% | % Tumor growth inhibition (colon 38 adenocarcinoma [3]; [11]): 92% | antitumor activity in vivo (various tumor models; several colon adenocarcinomas and pediatric rhabdomyosarcomas): effective | time plasma concentration at 5 ng/mL [8]: 15 min | time plasma concentration of 1 ng/mL maintained [8]: approximately 1 h
